Results as given in PubChem BioAssay AID1345082 (National Center for Advancing Translational Sciences (NCATS), 2018).
Out of some 94,000 compounds screened, about 4,000 (4.3%) were called active. This list was built around the results that the source calls inconclusive (neither active nor inactive); the mix of calls is not that of the screen. The call rests on the fitted dose curve; in most records, active means well fitted inhibition curve with a large enough effect; inconclusive means small, poorly fitted or top-dose-only effect; inactive means no such curve, though single readings can be large or run the other way. A potency beside an inconclusive call is a rough fit, not a confirmed value.

assay: Cytotoxic Profiling in NIH 3T3 Cell Line of Diverse Libraries Using Quantitative High-Throughput Screening; conditions: NIH 3T3 viability, CellTiter-Glo ATP luminescence, 48-72 h; series mostly up to 96.7 µM; further: nearly all actives have a fitted effect of over 55% in size
Procedure, shortened: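 Viability of NIH 3T3 cells after 48 or 72 hr compound treatment at 37 °C was assessed by CellTiter-Glo, with luminescence imaged following a 10 min room-temperature step.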
Potency means the concentration at half of the fitted maximal effect; tags describe the fitted curve by direction and shape.

SMILES | Potency
CCC1=C(C(=O)OC)C(c2ccccc2F)N2C(CC(=O)N3CCCC3)=CSC2=N1 (stereo not drawn) | inactive
CNC(=O)CCn1ncc2cc(OCc3ccccc3-c3ccc(F)cc3OC)ccc21 | inconclusive: 56.2 µM [inhibitor, partial curve, poor fit]
Cc1cc(NC(=O)Cn2c(-c3cccc(Cl)c3)nc(C)c(CCO)c2=O)no1 | inconclusive: 50.1 µM [inhibitor, partial curve, poor fit]
CC1=C[C@@H](CN2CCC(C(N)=O)CC2)[C@H](C(C)C)C[C@H]1Cc1nnc(-c2ccccc2F)o1 | inconclusive: 50.1 µM [inhibitor, partial curve, poor fit]
CCc1ccc(CNC(=O)c2cc3c(N4CCSCC4)nc(C)cn3n2)cc1 | inconclusive: 50.1 µM [inhibitor, partial curve, poor fit]
CN(C)c1ccc(CN[C@H]2C[C@H]3C(=O)NC[C@@H](CCC(=O)N4CCc5ccccc54)N3C2)cc1 | inconclusive: 89.1 µM [inhibitor, single point]
O=C(CCn1c2c(c3ccccc31)CCCC2)N1CCc2nc3cc[nH]n3c(=O)c2C1 | inconclusive: 56.2 µM [inhibitor, partial curve, poor fit]
CC(=O)N1CC(CN2C(=O)c3c(c(C)nn3-c3ccccc3)C2C2CC2)C1 (stereo not drawn) | active: 22.4 µM
CC[C@@H]1[C@@H](NC(=O)CCc2c(C)nc3ncnn3c2C)[C@@H]2CCO[C@H]12 | inactive
COCCN1CCCCCC(O)c2cc(C(=O)NCc3nc4ccccc4n3C)ccc21 (stereo not drawn) | inconclusive: 44.7 µM [inhibitor, partial curve, poor fit]
O=C(NCCn1ccn2nc(-c3ccc(F)cc3)cc2c1=O)c1cccs1 | inactive
COc1ccc(C2(C(=O)NC3CCCc4c3[nH]c3c(Cl)cccc43)CCOCC2)cc1 (stereo not drawn) | active: 22.4 µM
COCCNc1ncc(-c2ccccc2)c2c1OCC2 | inconclusive: 100 µM [inhibitor, partial curve, poor fit]
COc1ccc(-c2cn3cc(C(=O)NCC4CC4)nc3s2)cc1 | active: 50.1 µM
Cc1noc(C)c1[S+](=O)([O-])N1CCCN(c2ccc3nnc(C4CC4)n3n2)CC1 | inconclusive: 50.1 µM [inhibitor, partial curve, poor fit]
COc1cc(C(=O)N2CCC(O)(c3ccc(C)cn3)CC2)cc(OC)c1OC | inactive
Cc1nc(C)c(C(=O)N2CCN(C(=O)N(C)C)[C@@H]3CS(=O)(=O)C[C@@H]32)s1 | inactive
CC1=C[C@@H](CNCc2ccccn2)[C@H](C(C)C)C[C@H]1Cc1nnc(-c2ccccc2)o1 | inconclusive: 56.2 µM [inhibitor, partial curve, poor fit]
